From PMC4336329 (PLoS ONE, 2015)
Screen size: about 310,000 compounds; about 2,200 (0.71%) showed an effect of 50% or more. Effects have a minus sign here. This is one part of the list.

What follows are molecules tested against human ether-à-go-go-related gene (hERG) potassium channel (human, UniProt Q12809) (assay: primary screen, population patch clamp on CHO cells stably expressing hERG).
Chain of human ether-à-go-go-related gene (hERG) potassium channel (Q12809 whole entry, looked up): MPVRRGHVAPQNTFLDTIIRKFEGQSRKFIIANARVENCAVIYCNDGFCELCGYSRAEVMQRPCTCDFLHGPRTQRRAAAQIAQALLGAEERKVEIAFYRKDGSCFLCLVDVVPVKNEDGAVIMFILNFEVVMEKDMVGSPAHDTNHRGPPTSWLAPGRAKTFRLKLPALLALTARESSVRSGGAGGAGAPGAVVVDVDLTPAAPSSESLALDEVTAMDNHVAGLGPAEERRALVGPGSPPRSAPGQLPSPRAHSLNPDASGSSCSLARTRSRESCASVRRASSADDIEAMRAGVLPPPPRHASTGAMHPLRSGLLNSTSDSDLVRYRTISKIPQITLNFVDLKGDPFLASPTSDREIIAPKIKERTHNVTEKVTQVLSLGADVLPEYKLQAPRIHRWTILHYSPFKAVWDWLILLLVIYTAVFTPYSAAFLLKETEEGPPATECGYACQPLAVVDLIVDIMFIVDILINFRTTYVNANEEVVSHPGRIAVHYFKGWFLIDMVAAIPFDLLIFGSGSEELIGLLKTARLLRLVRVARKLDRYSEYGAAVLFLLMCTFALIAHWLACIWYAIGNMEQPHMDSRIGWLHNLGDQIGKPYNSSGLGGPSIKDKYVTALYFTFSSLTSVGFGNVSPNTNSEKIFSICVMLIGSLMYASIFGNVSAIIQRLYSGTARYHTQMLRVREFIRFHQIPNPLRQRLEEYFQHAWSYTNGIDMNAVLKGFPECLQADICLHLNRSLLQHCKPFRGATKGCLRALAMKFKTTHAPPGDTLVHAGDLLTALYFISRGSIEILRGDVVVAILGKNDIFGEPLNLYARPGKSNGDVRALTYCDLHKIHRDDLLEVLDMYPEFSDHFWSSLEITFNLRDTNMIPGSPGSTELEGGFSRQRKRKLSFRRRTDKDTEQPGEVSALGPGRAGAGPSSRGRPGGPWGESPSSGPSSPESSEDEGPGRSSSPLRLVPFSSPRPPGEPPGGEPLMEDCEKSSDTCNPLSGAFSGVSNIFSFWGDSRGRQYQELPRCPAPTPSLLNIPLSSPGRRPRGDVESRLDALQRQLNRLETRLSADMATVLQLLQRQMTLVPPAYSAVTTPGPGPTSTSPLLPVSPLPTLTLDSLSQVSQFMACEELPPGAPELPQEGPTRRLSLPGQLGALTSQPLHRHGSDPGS

SMILES	hERG current change (%, negative = inhibition) at 1uM [%]
CCCc1nc2ccccc2c(=O)n1-c1ccc(OC)cc1	8.32
COc1cc2c(cc1OC)C(CC#N)=NC(C)(C)C2	16.1
O=C(Cn1cc[n+](Cc2ccccc2)c1)c1ccc([N+](=O)[O-])cc1.[Br-]	-0.203
C=CCn1c(CCNC(=O)c2ccco2)nc2ccccc21	9.14
Cc1cccc(NC(=O)c2cc(NC(=O)c3ccco3)ccc2N2CCCCC2)c1	14.8
CCOC(=O)C(C)n1cnc2c(nnn2-c2ccc(C)cc2)c1=O (centres unmarked)	-2.62
CCCC(=O)Nc1ccc(Sc2ccc([N+](=O)[O-])cc2)cc1	8.28
CCN(CC)C1CC(=O)N(c2cccc(C)c2)C1=O (centres unmarked)	0.195
Cn1cc(-c2ccccc2C(=O)O)c(=O)c2cc(Cl)ccc21	13.1
O=C(CNC(=O)c1ccc(-c2ccccc2)cc1)OCc1c(Cl)cccc1Cl	5.16
Br.N=C1c2ccccc2CN1NC(=O)C1CC1	7.71
CCN(CC)S(=O)(=O)c1ccc2c(c1)nc(CCC(=O)Nc1ccc3c(c1)OCO3)n2C	9.95
COc1cc(CNC(=O)c2ccc(Cn3nc(C)c(Cl)c3C)o2)cc(OC)c1	11.2
O=C(NCc1ccco1)/C(=C\c1cccs1)NC(=O)c1ccsc1	3.9
COc1ccc(C(=O)Nc2cccc(-c3cnc4ccccc4n3)c2)cc1	3.38
COC(=O)C1(C)NC(c2ccc(O)cc2)C2C(=O)N(c3ccccc3)C(=O)C21 (centres unmarked)	12.3
COc1cc(C(=O)N(Cc2cccc(Cl)c2)C2CCS(=O)(=O)C2)cc(OC)c1OC (centres unmarked)	4.71
CCOc1ccccc1NC(=O)COC(=O)Cc1ccsc1	6.88
Cc1ccc(C(C)C)c(OCC#CCN2CCOCC2)c1.O=C(O)C(=O)O	14

SMILES	hERG current change (%, negative = inhibition) at 1uM [%]
CCOC(=O)C(CC)Sc1nc2c(c(=O)[nH]c(=O)n2C)n1CCc1ccccc1 (centres unmarked)	-30.9
CCN(CC)S(=O)(=O)c1ccc(C)c(NC(=O)COC(=O)CNC(=O)c2ccc(C(C)(C)C)cc2)c1	15
CC(=O)c1c(C)nc2ccc(Br)cc2c1C(=O)O	16.5
Cc1cc(=O)oc2cc(OC(C)C)ccc12	14.6
COc1ccc(/C=C/C(=O)NC(=S)Nc2cc([N+](=O)[O-])ccc2O)cc1OC	14.3
CCO.Cc1cc(C)c2nc(NC(=O)c3cccc(S(=O)(=O)N4CCc5ccccc54)c3)sc2c1	11
COCCn1c(SCC(=O)Nc2ccccc2F)nnc1-c1ccoc1C	10.2
Cc1ccc(C(=O)N2CCN(c3ccc(Cl)cc3)CC2)cc1	2.22
COCCNC(=O)Cn1ccc2cc(S(=O)(=O)N3CCCCCC3)ccc21	17.4
CCN(CC)S(=O)(=O)c1ccc(N/N=C/c2cc(OC)ccc2O)nc1	14
CC(Sc1ncnc2c1cnn2-c1ccccc1)C(=O)NCC1CCCO1 (centres unmarked)	5.58
CC(=O)N1CCn2c3c(c(=O)c4cc(C)ccc42)CCC31 (centres unmarked)	6.39
Cc1cc(C)cc(NC(=O)c2cccn2-c2ncc(C(F)(F)F)cc2Cl)c1	-3.93
Cc1ccc(S(=O)(=O)Oc2cccc(/C=N/n3cnnc3)c2)cc1	-11.8
CCc1nnc(NC(=O)c2cc3c(s2)CCCCC3)s1	35.8
CCC(=O)c1c[nH]c(C(=O)NCCCn2ccnc2)c1	9.63
CCN1C(=O)C(CC(=O)Nc2ccc(C)cc2C)Nc2cc(S(=O)(=O)N(C)C)ccc21 (centres unmarked)	-12.2
O=C(CSCc1ccccc1)NCCCN1CCOCC1	12.8
CCn1nc(C)c(NC(=O)c2ccc(Cl)cc2)c1C	15.8

SMILES	hERG current change (%, negative = inhibition) at 1uM [%]
CS(=O)(=O)Nc1cccc(S(=O)(=O)N2CCN(C(=O)c3ccccc3)CC2)c1	9.36
O=C(NCc1ccco1)C1c2ccccc2Oc2ccccc21	15.4
COc1ccc(Nc2cc(C(=O)NCCCN3CCOCC3)c3ccccc3n2)cc1OC	12.4
O=C(CSc1ncnc2c1oc1ccccc12)Nc1ccccc1C(F)(F)F	14.1
CCc1ccc2c(c1)C1(SC(NC(C)=O)=NN1C(C)=O)C(=O)N2C(C)C (centres unmarked)	10.4
C=CCNCCCOc1ccc(C)cc1Br.Cl	7.37
N#CCCn1cc(C=O)c(-c2cccs2)n1	4.74
COC(=O)c1ccc(Cn2cc(Cl)cn2)o1	20.5
Cc1ccc(C)c(NS(=O)(=O)c2cc(C(=O)Nc3cccc(N(C)S(C)(=O)=O)c3)ccc2C)c1	-3.44
CCOC(=O)N1CCN(CC(=O)Nc2cc3c(cc2C(C)=O)OCO3)CC1	2.2
Cc1cc2cc(OCC(=O)O)ccc2n1C	5.61
COc1ccc2cc(S(=O)(=O)N3CCCCC3)ccc2c1S(=O)(=O)N1CCCCC1	5.5
O=C(CNC(=O)c1ccc(Br)o1)NNC(=O)c1ccccc1F	13.3
CC(=O)NCCc1nc2cc(NC(=O)c3ccccc3C)ccc2n1C	11.4
O=C(COc1ccc2c(c1)CCC2)N1CCN(c2cccc(C(F)(F)F)c2)CC1	2.99
CCOC(=O)C1CN(S(=O)(=O)c2ccccc2)CCN1S(=O)(=O)c1ccccc1 (centres unmarked)	-0.283
O=C(CCc1nc2ccccc2c(=O)[nH]1)Nc1cccc(S(=O)(=O)N2CCCCC2)c1	15.3
O=C(CN1C(=O)c2cccc([N+](=O)[O-])c2C1=O)N1CCN(c2ccc(F)cc2)CC1	10.6
